Measured values reported in the supplement of paper PMC8285479.
Where a name gives a salt, the structure may show the parent alone. ± gives the standard deviation of the averaged measurements. Over roughly 1,900 compounds, “normalised cell viability (NPI; 0 = phenylarsine oxide control, 1 = DMSO control)” has its median near 1; the lowest 2% begin near 0.039. Some of the results follow.

System: NCI-H1944
Experiment: normalised cell viability (NPI; 0 = phenylarsine oxide control, 1 = DMSO control) (fraction of DMSO control); NCI-H1944 is a non-small cell lung cancer line; higher = more viable cells (less compound toxicity)
Settings: 6 days
[1] = glucocorticoid arm: hydrocortisone 2.75 uM co-treatment, compound 1 µM
[2] = glucocorticoid arm: hydrocortisone 2.75 uM co-treatment, compound 5 µM
[3] = glucocorticoid arm: hydrocortisone 2.75 uM pre-treated 2 days and continued, compound 1 µM
[4] = glucocorticoid arm: hydrocortisone 2.75 uM pre-treated 2 days and continued, compound 5 µM
[5] = glucocorticoid arm: vehicle, compound 1 µM
[6] = glucocorticoid arm: vehicle, compound 5 µM
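Note: CTB read-out in 384-well plates, mean of triplicate wells, normalised per plate against 1 µM phenylarsine oxide and 0.1% DMSO, compounds added 24 h after seeding.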

| Compound | normalised cell viability [1] | normalised cell viability [2] | normalised cell viability [3] | normalised cell viability [4] | normalised cell viability [5] | normalised cell viability [6] |
| --- | --- | --- | --- | --- | --- | --- |
| CS(=O)(=O)N1CCc2c(-c3cnc(N)nc3)nc(N3CCOCC3)nc21 | 0.528 ± 0.021 | 0.513 ± 0.01 | 0.552 ± 0.058 | 0.627 ± 0.034 | 0.491 ± 0.024 | 0.651 ± 0.064 |
| CC(=O)[C@]1(O)Cc2c(O)c3c(c(O)c2[C@@H](O[C@H]2C[C@H](N)[C@H](O)[C@H](C)O2)C1)C(=O)c1ccccc1C3=O [Idarubicin hydrochloride] | 0.00497 ± 0.00094 | 0.0017 ± 0.0005 | 0.00532 ± 0.0009 | 0.024 ± 0.0063 | 0.00471 ± 0.00071 | 0.00231 ± 0.00037 |
| CC(=O)[C@]1(O)Cc2c(O)c3c(c(O)c2[C@@H](O[C@H]2C[C@H](N)[C@H](O)[C@H](C)O2)C1)C(=O)c1ccccc1C3=O [Idarubicin hydrochloride; Idarubicin; 4-DMD HCl] | 0.0183 ± 0.0037 | 1.06 ± 0.026 | 0.0494 ± 0.0094 | 1.033 ± 0.0058 | 0.00163 ± 0.00068 | 1.006 ± 0.0075 |
| CN1CCN(CCCN2c3ccccc3Sc3ccc(Cl)cc32)CC1 [Prochlorperazine dimaleate] | 0.9823 ± 0.0064 | 0.9213 ± 0.0091 | 1.02 ± 0.031 | 1 ± 0.011 | 1 ± 0.0085 | 0.869 ± 0.041 |
| COCC[n+]1c2c(n(Cc3cnccn3)c1C)C(=O)c1ccccc1C2=O | 0.00685 ± 0.0014 | 0.00188 ± 0.0012 | 0.00552 ± 0.0012 | 0.0024 ± 0.00039 | 0.00736 ± 0.00083 | 0.00199 ± 0.00048 |
| O=C(NCCO)c1cccc(-c2cc(Nc3ccc(OC(F)(F)F)cc3)ncn2)c1 | 1.02 ± 0.015 | 1.06 ± 0.032 | 1.033 ± 0.0058 | 1.02 ± 0.015 | 0.9997 ± 0.0096 | 1.02 |
| Nc1ncnc2c1c(-c1ccc(Oc3ccccc3)cc1)cn2C1CCCC1 | 0.9787 ± 0.0086 | 0.825 ± 0.052 | 0.995 ± 0.017 | 1.05 ± 0.02 | 1.013 ± 0.0058 | 0.852 ± 0.015 |
| O=C(O)[C@H]1NCCC[C@H]1C(=O)O (relative stereo) [cis-Piperidine-2,3-dicarboxylic acid] | 1 ± 0.016 | 1 ± 0.022 | 1 ± 0.018 | 0.973 ± 0.0087 | 0.987 ± 0.0092 | 0.9887 ± 0.005 |
| CCC(C)N(C)C(=O)c1cc2ccccc2c(-c2ccccc2Cl)n1 (configuration not stated) | 1 ± 0.024 | 1.02 ± 0.011 | 0.879 ± 0.22 | 0.9985 ± 0.0021 | 0.9953 ± 0.0045 | 1.013 ± 0.0058 |
| COc1cc2c(cc1C(F)(F)F)N(C(=O)Nc1cc(F)cc(-c3cccnc3)c1)CC2 | 0.994 ± 0.017 | 0.0391 ± 0.01 | 1.02 ± 0.01 | 0.903 ± 0.021 | 0.974 ± 0.028 | 0.00107 ± 0.00012 |
| Nc1nc2ccc(Cl)cc2c2nc(-c3ccco3)nn12 | 1.02 | 1.05 ± 0.017 | 1.01 ± 0.017 | 1.02 ± 0.026 | 1.003 ± 0.0058 | 1.007 ± 0.0058 |
| Cc1cc2c(F)c(Oc3ncnn4cc(OC[C@@H](C)OC(=O)[C@H](C)N)c(C)c34)ccc2[nH]1 | 1.013 ± 0.0058 | 1.03 ± 0.021 | 1.002 ± 0.0076 | 1.02 ± 0.016 | 1.01 | 1.03 ± 0.01 |
| C[C@@H]1COCCN1c1cc(C2(S(C)(=O)=O)CC2)nc(-c2cccc3[nH]ccc23)n1 | 0.748 ± 0.038 | 0.428 ± 0.038 | 0.888 ± 0.041 | 0.676 ± 0.045 | 0.296 ± 0.015 | 0.089 ± 0.006 |
| CCOC(=O)Nc1cc(-c2ccc(C)c(NS(C)(=O)=O)c2)nn2c(C)nnc12 [Bromosporine] | 0.95 ± 0.024 | 0.988 ± 0.047 | 0.931 ± 0.028 | 0.979 ± 0.019 | 0.9953 ± 0.0064 | 0.882 ± 0.027 |
| COc1ccc([C@@H]2CC(=O)c3c(O)cc(O)cc3O2)cc1O [Hesperetin] | 1.02 ± 0.01 | 1.03 ± 0.015 | 1.01 ± 0.016 | 1.03 ± 0.01 | 1.007 ± 0.0058 | 1.01 ± 0.011 |
| CCN(CC)CCOC(=O)C1(C2CCCCC2)CCCCC1 [Dicyclomine hydrochloride] | 0.988 ± 0.0017 | 0.914 ± 0.021 | 0.991 ± 0.018 | 0.991 ± 0.011 | 0.993 ± 0.007 | 0.9937 ± 0.0093 |

| Compound | normalised cell viability [1] | normalised cell viability [2] | normalised cell viability [3] | normalised cell viability [4] | normalised cell viability [5] | normalised cell viability [6] |
| --- | --- | --- | --- | --- | --- | --- |
| CC(N/C(=N\C#N)Nc1ccncc1)C(C)(C)C (configuration not stated) [Pinacidil] | 1.01 ± 0.011 | 0.9893 ± 0.0085 | 1.02 ± 0.029 | 0.985 ± 0.0082 | 1.003 ± 0.0064 | 1.002 ± 0.0072 |
| NC(=O)c1ccc(N(C(N)=O)c2c(F)cccc2F)nc1-c1ccc(F)cc1F | 0.873 ± 0.027 | 0.792 ± 0.017 | 0.906 ± 0.011 | 0.869 ± 0.017 | 1 ± 0.011 | 1.01 ± 0.01 |
| C[N+]1(C)CCC(OC(=O)C(c2ccccc2)c2ccccc2)CC1 [4-DAMP methiodide] | 0.9973 ± 0.0025 | 0.951 ± 0.032 | 0.9913 ± 0.0078 | 0.968 ± 0.019 | 0.9877 ± 0.0023 | 0.985 ± 0.0044 |
| Oc1cc(O)c2c(c1)O[C@H](c1ccc(O)c(O)c1)[C@@H](O)C2 [(+)-Catechin Hydrate] | 1.003 ± 0.0061 | 0.994 ± 0.028 | 1.003 ± 0.0058 | 0.998 ± 0.0014 | 0.9897 ± 0.0084 | 0.992 ± 0.01 |
| C#CC(N)CCC(=O)O (configuration not stated) [gamma-Acetylinic GABA] | 0.983 ± 0.018 | 0.993 ± 0.023 | 0.987 ± 0.0052 | 0.9945 ± 0.0064 | 0.9757 ± 0.0086 | 0.9863 ± 0.0059 |
| COc1c(C)c(C(=O)c2ccc(N)c(C(=O)O)c2)n2ccccc12 | 1.02 ± 0.015 | 1.03 ± 0.011 | 1.02 ± 0.015 | 1.02 ± 0.025 | 1.013 ± 0.0058 | 1.013 ± 0.0058 |
| N=C(NC(=O)c1nc(Cl)c(N)nc1N)Nc1ccccc1 [Phenamil methanesulfonate] | 1.01 ± 0.011 | 1.04 ± 0.025 | 0.894 ± 0.22 | 1.06 ± 0.025 | 1.007 ± 0.0058 | 0.9977 ± 0.004 |
| COc1ccc2c(c1)CCC1C2CCC2(C)C(NCCCCCCN3C(=O)C=CC3=O)CCC12 (configuration not stated) | 0.991 ± 0.016 | 1.01 ± 0.01 | 0.811 ± 0.34 | 0.9993 ± 0.0097 | 1.006 ± 0.0075 | 1.003 ± 0.0064 |
| COc1cc(C(=O)OCCCN2CCCN(CCCOC(=O)c3cc(OC)c(OC)c(OC)c3)CC2)cc(OC)c1OC [Dilazep dihydrochloride] | 0.9987 ± 0.0023 | 0.918 ± 0.015 | 1 ± 0.014 | 0.969 ± 0.033 | 1.013 ± 0.0058 | 1.007 ± 0.0058 |
| COc1ccc(-c2ccc3c(N4CCOC[C@@H]4C)nc(N4CCOC[C@@H]4C)nc3n2)cc1CO | 0.39 ± 0.012 | 0.292 ± 0.01 | 0.498 ± 0.013 | 0.437 ± 0.046 | 0.249 ± 0.016 | 0.164 ± 0.016 |
| NCCC[C@](N)(C(=O)O)C(F)F (racemic) [DL-alpha-Difluoromethylornithine hydrochloride] | 0.9853 ± 0.0063 | 0.923 ± 0.021 | 0.9873 ± 0.0064 | 0.932 ± 0.011 | 0.9863 ± 0.0055 | 0.9817 ± 0.0032 |
| c1ccc(NCc2ccc(CNc3ccccn3)cc2)nc1 | 1.013 ± 0.0058 | 1.002 ± 0.0068 | 1.005 ± 0.0081 | 0.984 ± 0.036 | 0.999 ± 0.0017 | 1.01 |
| COc1ccc2c(OCc3nnc4ccc(-c5ccccc5)nn34)ccnc2c1 | 0.997 ± 0.011 | 0.989 ± 0.014 | 0.999 ± 0.01 | 1 ± 0.016 | 1.003 ± 0.0061 | 0.991 ± 0.017 |
| COc1c2occc2cc2ccc(=O)oc12 [Methoxsalen] | 1.01 ± 0.027 | 0.834 ± 0.065 | 1.01 ± 0.011 | 0.92 ± 0.03 | 1.01 ± 0.01 | 0.774 ± 0.035 |
| CN1CCN(C2=Nc3ccccc3Oc3ccc(Cl)cc32)CC1 [Loxapine succinate] | 1.005 ± 0.0092 | 0.97 ± 0.028 | 0.995 ± 0.0087 | 1.04 ± 0.015 | 0.9983 ± 0.0029 | 1.02 ± 0.021 |
| CC1c2cccc(O)c2C(O)=C2C(=O)C3(O)C(O)=C(C(N)=O)C(=O)C(N(C)C)C3C(O)C21 (configuration not stated) [Doxycycline hydrochloride] | 1 | 0.9303 ± 0.0093 | 0.99 ± 0.014 | 0.945 ± 0.018 | 0.9897 ± 0.0067 | 0.9743 ± 0.006 |
